# Measurements: article PMC12136788
# Some of the results follow.
# T1: UNK ZnF1-3 (human, UniProt Q9C0B0 31-174)
# T1 sequence: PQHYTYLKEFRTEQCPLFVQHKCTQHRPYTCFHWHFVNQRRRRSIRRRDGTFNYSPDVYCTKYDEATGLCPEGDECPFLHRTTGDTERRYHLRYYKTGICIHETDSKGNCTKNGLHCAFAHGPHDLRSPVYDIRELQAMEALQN
# B1: chr5:143539998:143539999:-_ENSG00000145817_ENST00000274496|hu_mus|motif|central (ssRNA)
# RNA: GGGAGUUCUACAGUCCGACGAUCAGUUCAGAAGACAGAAAUCAGGGCAAAGACUCCAUACAACAAAGCACAGGGAUAUGCCACGGAAAGUUGUUGUCCAUCCAUAGCUAAUGCAGAAAUAAAAAUUUUGGAAGCAGAAAAACUCAACAGAGGAUUGAGCAUCA
# B2: chr1:39494447:39494448:+_ENSG00000168653_ENST00000372967|hu_mus|hu_hu_hu_mus_False|28_108 (ssRNA)
# RNA: GGGAGUUCUACAGUCCGACGAUCGCAUCGACCAGCCUUCUUAUAGGGCUGUUCUGCGCUUAGGAACAUAAAGUGCCGGUCCAGGCUGAUGCCCAGCUUUUUCUGUAUGUCCAAGAAAGGCAUGGCUCUGCAGUGCCCUUGUCACAACAGAGGAUUGAGCAUCA
# B3: 90030650_90030925_1232_3pUTR_ENSG00000140995_ENST00000570182|human|control|control (ssRNA)
# RNA: GGGAGUUCUACAGUCCGACGAUCGCACGUCGCCCUCUCUGCAGAGCUCACACACGAAGCCCUUGGCCUGGCACCGCUCGCAGUCCAGCUUGAUGUGCUUGGCGAAGAGCGUGUGGAUCUCGGUGAGCGAGCAGCCCAGGCGGCCAACAGAGGAUUGAGCAUCA
# B4: 154703432_154703552_822_CDS_ENSMUSG00000074656_ENSMUST00000099173|mouse|control|control (ssRNA)
# RNA: GGGAGUUCUACAGUCCGACGAUCAAAAGAAGUUUUCUUGGUUCCUACUCGGACGACCUGUGGAGGUUUCAUAACAAAUUUCCUCUUCUCUCCAGCAACCAUAUCUGGAUUCUUUUCUCUCAUGAUGUUGAACACUCGGUUCAGCAACAGAGGAUUGAGCAUCA
# B5: chr14:90871293:90871294:+_ENSG00000198668_ENST00000553542|hu_mus|FALSE|FALSE (ssRNA)
# RNA: GGGAGUUCUACAGUCCGACGAUCCAUUAGCAAAUGGAACUUUAAGGAGUCCACUAAGUGCUUCCUUAUAAGGUAGUACGAGUAUUUAUACUGUAAAACUGAUGUAGGGGCUUGACUUUAGGGGCAGGACCACCGACCAAUACACAACAGAGGAUUGAGCAUCA
# B6: chr6:22256794:22256795:-_ENSMUSG00000029672_ENSMUST00000165576|mus_mus|motif|central (ssRNA)
# RNA: GGGAGUUCUACAGUCCGACGAUCCCUGUUCUCAAGCAACUUUACUUCAUACACAUUCAAAUAUAUCCAGGCCAUAUGAUACGGCGGUGUUGAAUGGCAAAAACUUAAUUUUUAUAUGUUAAGAUGUAUCCAAAAAAAAAAAAACAACAGAGGAUUGAGCAUCA
# B7: chr7:31009287:31009288:-_ENSMUSG00000006095_ENSMUST00000006254|mus_hu|FALSE|FALSE (ssRNA)
# RNA: GGGAGUUCUACAGUCCGACGAUCAGCAGGGGAAUUCCUUAGGUGUCAUAUCUCGUCCAACCCGUAGUCCUCCUCCGGGAAGUCCCCCACCGUCACGACUGCUGGCUUGACAAAGGCGCCAUACUUGGCCUGGCAUUCGAAGUACAACAGAGGAUUGAGCAUCA
# B8: chr18:43668140:43668141:-_ENSG00000152234_ENST00000398752|hu_hu|FALSE|FALSE (ssRNA)
# RNA: GGGAGUUCUACAGUCCGACGAUCAAGUCUCUUCACCAACUGGGCAACAGUGGAUCUCUUUUGACCAAUAGCAACAUAAAUACAGUACAGCUUCUUCUUUUCAUCAGAUCCAUCAUUGAAACGUUUCUGGUUAAUGAUUGUGUCCAACAGAGGAUUGAGCAUCA
# B9: chr7:141445308:141445309:+_ENSG00000106028_ENST00000265304|hu_hu|hu_hu_hu_mus_False|8_8 (ssRNA)
# RNA: GGGAGUUCUACAGUCCGACGAUCUAUGAUUGUUGUUGCUUGCCGCCUCACAUUGUUUUUAUCCAUGUACUCGCCAUAGUCCACUUUCCCUUCCACAAAUAUACGAGCCCCCUUUUUCACAUACUGAUAUGCCACGUCUCUGAGCAACAGAGGAUUGAGCAUCA
# B10: 72476637_72486543_478_CDS_ENSMUSG00000020794_ENSMUST00000021148|mouse|control|control (ssRNA)
# RNA: GGGAGUUCUACAGUCCGACGAUCCUCUGUAAUGAAUUUCAUUUUAGGAGGCCGGAGGGGAUAAUCUUUUGGGAAAGUGAGAUGAGCCUUAAAAACACCACCUUCAUAAAGUGUAUCUGGAGGACCAAUAAUAAGGACUUCCCACAACAGAGGAUUGAGCAUCA
# B11: chr9:14120538:14120539:-_ENSG00000147862_ENST00000380959|hu_hu|FALSE|FALSE (ssRNA)
# RNA: GGGAGUUCUACAGUCCGACGAUCCUUCAGAGUAUCCUGAGGAUUCAGGUGGGGAGGAUAUCUGAUUGUUGGAUGAGAAAAGUAGCUCGAUGGGGCUGGAGGAAGGAUAGCUUGUGUUGGAAAUGGCAACGGUGAAGGUGGAGGCAACAGAGGAUUGAGCAUCA
# B12: chr4:132324321:132324322:+_ENSMUSG00000028884_ENSMUST00000102561|mus_mus|motif|central (ssRNA)
# RNA: GGGAGUUCUACAGUCCGACGAUCCACAUCCUGGUCGCAGUUCUCCGGAGAGAGCGGCCCAAGACGCUCGGACACGAAAACGGAGAACACUUGGGAACUCUGUGCCGCUCUGGCGUGGCAGCCUUCUGGCUACUUUGCACUGGCCAACAGAGGAUUGAGCAUCA
# B13: chr8:38067721:38067722:+_ENSG00000156735_ENST00000287322|hu_hu|FALSE|FALSE (ssRNA)
# RNA: GGGAGUUCUACAGUCCGACGAUCUUUUUUAAUACUCGGAGGAGUACUUUCAUCUGAAGGUACACAUUCUUCAGGAAGACUGCUACUUUGAUCUUGAUUGUUGGGAUGGUCACUGGUGGCAUUACCAUACAGCUGAGGCUCAGCCAACAGAGGAUUGAGCAUCA
# B14: chr7:140404665:140404666:+_ENSG00000090266_ENST00000247866|hu_hu|hu_hu_hu_mus_False|1_8 (ssRNA)
# RNA: GGGAGUUCUACAGUCCGACGAUCUGCUCCUACUCGUCCAGAGAGUUUACAGUGUCAGUCCUCGUCAUCAGGAGGGAUUCCCAGUUCUUCAUCUGUCCACUGUGAAGGAUCUGGAUAUGAAAAGUGACCCAGCACCUCUUCUGACAACAGAGGAUUGAGCAUCA
# B15: chr14:89338683:89338684:+_ENSG00000165533_ENST00000346301|hu_hu|hu_hu_hu_mus_False|98_108 (ssRNA)
# RNA: GGGAGUUCUACAGUCCGACGAUCGUGGUUGUUGUUGACCAGAGCCAGCCUGAAGCAUUGGUGGGCCAAGUUUGUAUCUCCGAUUCCCACAGCUAUGUGCCCCAGGUUGUACCAGACAUCAGCUGCCUCUUCUUCAUUUUCAGCCAACAGAGGAUUGAGCAUCA
# B16: chr1:163116471:163116472:-_ENSG00000143248_ENST00000313961|hu_hu|motif|central (ssRNA)
# RNA: GGGAGUUCUACAGUCCGACGAUCUAUAAAAUACUUCAUUGUUGAUCUUAGGUCAUUGAUUUAAAACAGAAUUUGGUGACGGUGGGCAGGUGGAGGGGGCCAGUGAGGAAGGUAUAAAAGAGAAAUCUUUAUGAAUUGUGUUCACAACAGAGGAUUGAGCAUCA
# B17: chr2:25103730:25103731:-_ENSMUSG00000006471_ENSMUST00000100329|mus_mus|FALSE|FALSE (ssRNA)
# RNA: GGGAGUUCUACAGUCCGACGAUCCCAGCCCUUCUGCUCUAGCUUCUGCCAUUCAGUCUGCCAGUAGAAGUCCUGAUCCCGCUGGCGGCAGCCAAAGAACAAGAAGUUUCCAGUUUGGCCAUGAGCCACUCGUUCCUGAAUGGCCAACAGAGGAUUGAGCAUCA
# B18: chr11:87793471:87793472:-_ENSMUSG00000020483_ENSMUST00000020775|mus_mus|mus_mus_mus_hu_False|18_98 (ssRNA)
# RNA: GGGAGUUCUACAGUCCGACGAUCUGGACUUGAAAAUAAAAAAAAUAGCUGGAUCCCCCACCCCCCCACAUUGUCAACCCUACACGAGAGUUUUGAAGGCGACUCAUGAAAAUCAGCCUCAAUUGGCGCAAUGACCACCCCACCCAACAGAGGAUUGAGCAUCA
# B19: chr3:150289777:150289778:+_ENSG00000144895_ENST00000460851|hu_hu|FALSE|FALSE (ssRNA)
# RNA: GGGAGUUCUACAGUCCGACGAUCUUUGGCAGGCAUAAAACCAUAUACAGCACAAAACUCAGUAGAACUAGAAUUCCAAACUACAUCAUAAAUGGGGCCAUUUUUUGGUAAUUGCACUACAGCACUUUCUCCAUUUGUUGCAAUCAACAGAGGAUUGAGCAUCA
# B20: chr1:58468927:58468928:-_ENSMUSG00000026034_ENSMUST00000148330|mus_mus|mus_mus_mus_hu_False|1_28 (ssRNA)
# RNA: GGGAGUUCUACAGUCCGACGAUCAAUUACUGAAAAAGAUGUUCAUUACCUUAGCUAUGUACUUAAUGAACCAAAUUACCCAAACAAAAUAAACAUGGCAAUAUAAAAAGCUAUACAAUUUACAAAGCUGUACAAAAAGACUGACAACAGAGGAUUGAGCAUCA
# B21: chr14:76904430:76904431:+_ENSMUSG00000022010_ENSMUST00000022587|mus_mus|mus_mus_mus_hu_True|8_78 (ssRNA)
# RNA: GGGAGUUCUACAGUCCGACGAUCUGCAGCCAAAAACACCCUCGUGGAAAAAAAGAGCAAGCUCCAGCAGCCUUGUAUAAGCUAGAUAAAAUCUUCUGGCUUUCCGCAGCCCAGGGAGAAACAGAAAUGGUGCUGGCUAAUUUACAACAGAGGAUUGAGCAUCA
# B22: 235951258_235951378_2309_CDS_ENSG00000130147_ENST00000392011|human|control|control (ssRNA)
# RNA: GGGAGUUCUACAGUCCGACGAUCGCUGGACACCGGGCGGUCCUGGAAAGUCGGGUACUUUGUAGUGGUGGCAAACGGGGACAGGAUGAUUUUCCCGACUUCGUUCUUCUUGAGAAACCUCCUUUGCCCGGAAGGCUUGAUGGCCAACAGAGGAUUGAGCAUCA
# Target: T1, UNK ZnF1-3
# Assay: nsRBNS (natural sequence RNA bind-n-seq); RBNS binding buffer (assumed for nsRBNS): 25 mM Tris pH 7.5, 150 mM KCl, 3 mM MgCl2, 0.01% Triton X-100, 500 ug/ml BSA, 20 U/ml SUPERase-In, 4 C; UNK is unkempt and MSI1 is Musashi-1; names of the RNAs are library labels; protein concentration not given here; high values mean tight binding
row,Binder,binding signal
1,B1,1.86 enrichment R
2,B2,0.761 enrichment R
3,B3,0.505 enrichment R
4,B4,0.629 enrichment R
5,B5,0.881 enrichment R
6,B6,2.7 enrichment R
7,B7,1.13 enrichment R
8,B8,1.43 enrichment R
9,B9,0.618 enrichment R
10,B10,1.8 enrichment R
11,B11,1.94 enrichment R
12,B12,0.687 enrichment R
13,B13,0.664 enrichment R
14,B14,1.19 enrichment R
15,B15,0.58 enrichment R
16,B16,2.06 enrichment R
17,B17,0.798 enrichment R
18,B18,2.89 enrichment R
19,B19,1.06 enrichment R
20,B20,0.846 enrichment R
21,B21,2.11 enrichment R
22,B22,0.955 enrichment R
